# ± gives the standard deviation of the averaged measurements. Laboratory Escherichia coli strains with one amino-acid change in an essential protein, pooled on minimal glucose agar with carbenicillin or gentamicin at twice the control MIC (plus kanamycin and chloramphenicol for the plasmids), 48 h. Fold change of barcode share against drug-free plates; higher = less susceptible. Active = above 20 in both replicates (the paper's putatively resistant). '<' = one read or none on drug, '>' = one read or none on a drug-free plate. Shares are relative, so most strains fall below 1 when a few take over. Listed are strains with at least 15 reads on both drug-free plates, and hits; most hits rest on fewer reference reads. Replicate rank correlation about 0.5. Edits are read from barcodes.
# Biological target: Escherichia coli (laboratory strain)
# Test: barcode share on antibiotic plates over drug-free plates; higher = less susceptible
# Conditions: antibiotic: gentamicin; 2× MIC (MIC 0.45 µg/mL)
# Procedure: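 A pool of E. coli strains, each edited to carry one amino-acid change in an essential protein, was grown for 48 h on minimal glucose agar with or without antibiotic; strain barcodes were sequenced; mean of two replicates.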
row,Protein,fold change of barcode share
1,dnaC V135A (protein) MKNVGDLMQRLQKMMPAHIKPAFKTGEELLAWQKEQGAIRSAALERENRAMKMQRTFNRSGIRPLHQNCSFENYRVECEGQMNALSKARQYVEEFDGNIASFIFSGKPGTGKNHLAAAICNELLLRGKSVLIITAADIMSAMKDTFRNSGTSEEQLLNDLSNVDLLVIDEIGVQTESKYEKVIINQIVDRRSSSKRPTGMLTNSNMEEMTKLLGERVMDRMRLGNSLWVIFNWDSYRSRVTGKEY,< 0.00764
2,adk L209W (protein) MRIILLGAPGAGKGTQAQFIMEKYGIPQISTGDMLRAAVKSGSELGKQAKDIMDAGKLVTDELVIALVKERIAQEDCRNGFLLDGFPRTIPQADAMKEAGINVDYVLEFDVPDELIVDRIVGRRVHAPSGRVYHVKFNPPKVEGKDDVTGEELTTRKDDQEETVRKRLVEYHQMTAPLIGYYSKEAEAGNTKYAKVDGTKPVAEVRADWEKILG,0.0204 ± 0.017
3,adk L209Q (protein) MRIILLGAPGAGKGTQAQFIMEKYGIPQISTGDMLRAAVKSGSELGKQAKDIMDAGKLVTDELVIALVKERIAQEDCRNGFLLDGFPRTIPQADAMKEAGINVDYVLEFDVPDELIVDRIVGRRVHAPSGRVYHVKFNPPKVEGKDDVTGEELTTRKDDQEETVRKRLVEYHQMTAPLIGYYSKEAEAGNTKYAKVDGTKPVAEVRADQEKILG,< 0.0202
4,eno M94A (protein) MSKIVKIIGREIIDSRGNPTVEAEVHLEGGFVGMAAAPSGASTGSREALELRDGDKSRFLGKGVTKAVAAVNGPIAQALIGKDAKDQAGIDKIAIDLDGTENKSKFGANAILAVSLANAKAAAAAKGMPLYEHIAELNGTPGKYSMPVPMMNIINGGEHADNNVDIQEFMIQPVGAKTVKEAIRMGSEVFHHLAKVLKAKGMNTAVGDEGGYAPNLGSNAEALAVIAEAVKAAGYELGKDITLAMDCAASEFYKDGKYVLAGEGNKAFTSEEFTHFLEELTKQYPIVSIEDGLDESDWDGFAYQTKVLGDKIQLVGDDLFVTNTKILKEGIEKGIANSILIKFNQIGSLTETLAAIKMAKDAGYTAVISHRSGETEDATIADLAVGTAAGQIKTGSMSRSDRVAKYNQLIRIEEALGEKAPYNGRKEIKGQA,< 0.0196
5,eno M94D (protein) MSKIVKIIGREIIDSRGNPTVEAEVHLEGGFVGMAAAPSGASTGSREALELRDGDKSRFLGKGVTKAVAAVNGPIAQALIGKDAKDQAGIDKIDIDLDGTENKSKFGANAILAVSLANAKAAAAAKGMPLYEHIAELNGTPGKYSMPVPMMNIINGGEHADNNVDIQEFMIQPVGAKTVKEAIRMGSEVFHHLAKVLKAKGMNTAVGDEGGYAPNLGSNAEALAVIAEAVKAAGYELGKDITLAMDCAASEFYKDGKYVLAGEGNKAFTSEEFTHFLEELTKQYPIVSIEDGLDESDWDGFAYQTKVLGDKIQLVGDDLFVTNTKILKEGIEKGIANSILIKFNQIGSLTETLAAIKMAKDAGYTAVISHRSGETEDATIADLAVGTAAGQIKTGSMSRSDRVAKYNQLIRIEEALGEKAPYNGRKEIKGQA,< 0.0213
6,eno L112P (protein) MSKIVKIIGREIIDSRGNPTVEAEVHLEGGFVGMAAAPSGASTGSREALELRDGDKSRFLGKGVTKAVAAVNGPIAQALIGKDAKDQAGIDKIMIDLDGTENKSKFGANAIPAVSLANAKAAAAAKGMPLYEHIAELNGTPGKYSMPVPMMNIINGGEHADNNVDIQEFMIQPVGAKTVKEAIRMGSEVFHHLAKVLKAKGMNTAVGDEGGYAPNLGSNAEALAVIAEAVKAAGYELGKDITLAMDCAASEFYKDGKYVLAGEGNKAFTSEEFTHFLEELTKQYPIVSIEDGLDESDWDGFAYQTKVLGDKIQLVGDDLFVTNTKILKEGIEKGIANSILIKFNQIGSLTETLAAIKMAKDAGYTAVISHRSGETEDATIADLAVGTAAGQIKTGSMSRSDRVAKYNQLIRIEEALGEKAPYNGRKEIKGQA,> 89.6 [active]
7,eno I171W (protein) MSKIVKIIGREIIDSRGNPTVEAEVHLEGGFVGMAAAPSGASTGSREALELRDGDKSRFLGKGVTKAVAAVNGPIAQALIGKDAKDQAGIDKIMIDLDGTENKSKFGANAILAVSLANAKAAAAAKGMPLYEHIAELNGTPGKYSMPVPMMNIINGGEHADNNVDIQEFMWQPVGAKTVKEAIRMGSEVFHHLAKVLKAKGMNTAVGDEGGYAPNLGSNAEALAVIAEAVKAAGYELGKDITLAMDCAASEFYKDGKYVLAGEGNKAFTSEEFTHFLEELTKQYPIVSIEDGLDESDWDGFAYQTKVLGDKIQLVGDDLFVTNTKILKEGIEKGIANSILIKFNQIGSLTETLAAIKMAKDAGYTAVISHRSGETEDATIADLAVGTAAGQIKTGSMSRSDRVAKYNQLIRIEEALGEKAPYNGRKEIKGQA,> 47 [active]
8,eno I183A (protein) MSKIVKIIGREIIDSRGNPTVEAEVHLEGGFVGMAAAPSGASTGSREALELRDGDKSRFLGKGVTKAVAAVNGPIAQALIGKDAKDQAGIDKIMIDLDGTENKSKFGANAILAVSLANAKAAAAAKGMPLYEHIAELNGTPGKYSMPVPMMNIINGGEHADNNVDIQEFMIQPVGAKTVKEAARMGSEVFHHLAKVLKAKGMNTAVGDEGGYAPNLGSNAEALAVIAEAVKAAGYELGKDITLAMDCAASEFYKDGKYVLAGEGNKAFTSEEFTHFLEELTKQYPIVSIEDGLDESDWDGFAYQTKVLGDKIQLVGDDLFVTNTKILKEGIEKGIANSILIKFNQIGSLTETLAAIKMAKDAGYTAVISHRSGETEDATIADLAVGTAAGQIKTGSMSRSDRVAKYNQLIRIEEALGEKAPYNGRKEIKGQA,< 0.0132
9,erpA V70W (protein) MSDDVALPLEFTDAAANKVKSLIADEDNPNLKLRVYITGGGCSGFQYGFTFDDQVNEGDMTIEKQGVGLWVDPMSLQYLVGGSVDYTEGLEGSRFIVTNPNAKSTCGCGSSFSI,1720 [active]
10,erpA V71W (protein) MSDDVALPLEFTDAAANKVKSLIADEDNPNLKLRVYITGGGCSGFQYGFTFDDQVNEGDMTIEKQGVGLVWDPMSLQYLVGGSVDYTEGLEGSRFIVTNPNAKSTCGCGSSFSI,> 221 [active]
11,erpA V84A (protein) MSDDVALPLEFTDAAANKVKSLIADEDNPNLKLRVYITGGGCSGFQYGFTFDDQVNEGDMTIEKQGVGLVVDPMSLQYLVGGSADYTEGLEGSRFIVTNPNAKSTCGCGSSFSI,> 16600 [active]
12,fabB V174Q (protein) MKRAVITGLGIVSSIGNNQQEVLASLREGRSGITFSQELKDSGMRSHVWGNVKLDTTGLIDRKVVRFMSDASIYAFLSMEQAIADAGLSPEAYQNNPRVGLIAGSGGGSPRFQVFGADAMRGPRGLKAVGPYVVTKAMASGVSACLATPFKIHGVNYSISSACATSAHCIGNAQEQIQLGKQDIVFAGGGEELCWEMACEFDAMGALSTKYNDTPEKASRTYDAHRDGFVIAGGGGMVVVEELEHALARGAHIYAEIVGYGATSDGADMVAPSGEGAVRCMKMAMHGVDTPIDYLNSHGTSTPVGDVKELAAIREVFGDKSPAISATKAMTGHSLGAAGVQEAIYSLLMLEHGFIAPSINIEELDEQAAGLNIVTETTDRELTTVMSNSFGFGGTNATLVMRKLKD,< 0.0212
13,argA L400P (protein) MVKERKTELVEGFRHSVPYINTHRGKTFVIMLGGEAIEHENFSSIVNDIGLLHSLGIRLVVVYGARPQIDANLAAHHHEPLYHKNIRVTDAKTLELVKQAAGTLQLDITARLSMSLNNTPLQGAHINVVSGNFIIAQPLGVDDGVDYCHSGRIRRIDEDAIHRQLDSGAIVLMGPVAVSVTGESFNLTSEEIATQLAIKLKAEKMIGFCSSQGVTNDDGDIVSELFPNEAQARVEAQEEKGDYNSGTVRFLRGAVKACRSGVRRCHLISYQEDGALLQELFSRDGIGTQIVMESAEQIRRATINDIGGILELIRPLEQQGILVRRSREQLEMEIDKFTIIQRDNTTIACAALYPFPEEKIGEMACVAVHPDYRSSSRGEVLLERIAAQAKQSGLSKLFVPTTRSIHWFQERGFTPVDIDLLPESKKQLYNYQRKSKVLMADLG,< 0.0196
14,fabD V114A (protein) MTQFAFVFPGQGSQTVGMLADMAASYPIVEETFAEASAALGYDLWALTQQGPAEELNKTWQTQPALLTASVALYRVWQQQGGKAPAMMAGHSLGEYSALVCAGVIDFADAVRLAEMRGKFMQEAVPEGTGAMAAIIGLDDASIAKACEEAAEGQVVSPVNFNSPGQVVIAGHKEAVERAGAACKAAGAKRALPLPVSVPSHCALMKPAADKLAVELAKITFNAPTVPVVNNVDVKCETNGDAIRDALVRQLYNPVQWTKSVEYMAAQGVEHLYEVGPGKVLTGLTKRIVDTLTASALNEPSAMAAALEL,< 0.0185
15,argA V399D (protein) MVKERKTELVEGFRHSVPYINTHRGKTFVIMLGGEAIEHENFSSIVNDIGLLHSLGIRLVVVYGARPQIDANLAAHHHEPLYHKNIRVTDAKTLELVKQAAGTLQLDITARLSMSLNNTPLQGAHINVVSGNFIIAQPLGVDDGVDYCHSGRIRRIDEDAIHRQLDSGAIVLMGPVAVSVTGESFNLTSEEIATQLAIKLKAEKMIGFCSSQGVTNDDGDIVSELFPNEAQARVEAQEEKGDYNSGTVRFLRGAVKACRSGVRRCHLISYQEDGALLQELFSRDGIGTQIVMESAEQIRRATINDIGGILELIRPLEQQGILVRRSREQLEMEIDKFTIIQRDNTTIACAALYPFPEEKIGEMACVAVHPDYRSSSRGEVLLERIAAQAKQSGLSKLFDLTTRSIHWFQERGFTPVDIDLLPESKKQLYNYQRKSKVLMADLG,0.0359 ± 0.016

# — the supplement of paper PMC11876631
